Results on 23 molecules are retold here after ChEMBL document CHEMBL4888484, “Replenishing the malaria drug discovery pipeline: Screening and hit evaluation of the MMV Hit Generation Library 1 (HGL1) against asexual blood stage Plasmodium falciparum ,using a nano luciferase reporter read-out” (2022).

Structures are written as SMILES. The campaign covered roughly 150,000 compounds. About 540 (0.36%) showed an effect of 50% or more. Some of the results follow.

The experiment has as its system Plasmodium falciparum. In words: Primary screen in NF54 nanoGlo assay, in single point, at 2uM, 72h; a lower Z score goes with more inhibition. It is filed as functional, Erythrocyte. The settings on record: timepoint 72 hour.
Turning to `COc1cccc(Oc2nc(N3CCN(C)CC3)nc3c2CN(Cc2ccc4c(c2)OCO4)CC3)c1`, the % Inhibition (usually the drop in the measured response relative to a control, in per cent) stood at 1% and the Z score is listed as -0.12.
For `Cc1ccc(-c2noc(C(=O)N3CCCCC3)n2)cc1S(=O)(=O)NC1CC1`, in that order: -9% and 1.
Taken in the same sequence, the figures for `O=C(Nc1cccc(F)c1)c1cc(-c2ccc(F)cc2)ns1` were 3% and -0.53.
For `COc1cc(Br)ccc1CNC(=O)NC[C@H](C)OC`, in that order: 14% and -1.29.
`Cc1cc(Cn2cc(CCc3ccccc3)nn2)n[nH]1`: the “% Inhibition” value is reported as -9% and the Z score worked out at 1.07.
For `Cc1ccc(-c2noc(C3CCOC3c3ccc(Cl)c(F)c3)n2)cc1` (stereo unspecified), in that order: -12% and 1.49.
Taken in the same sequence, the figures for `COc1ccc([C@@H](Nc2nc(N3CCCC3)nc(N3CCCC3)n2)c2nccn2C)cc1` were -3% and 0.49.
Taken in the same sequence, the figures for `O=S1(=O)CCC(n2cc(CNC3CCc4cc(F)ccc43)cn2)C1` (stereo unspecified) were -2% and 0.21.
On to `Cn1nccc1CNc1nnc(-c2ccc(S(C)(=O)=O)cc2)o1`, for which the “% Inhibition” value was -9% and the Z score is listed as 1.42.
Taken in the same sequence, the figures for `O=C(N[C@H](c1ccccc1F)C1CCCC1)C1CCN(C(=O)c2ccco2)CC1` were -9% and 0.87.
For `CC(=O)Nc1c(-c2ccccc2)c(C)nn1-c1ccc(C(=O)N2CCN(C3CCCCC3)CC2)cc1`, in that order: -10% and 1.73.
Taken in the same sequence, the figures for `c1ccc(-c2ncc3c(n2)CCC[C@@H]3NCc2ccncc2)cc1` were -1% and 0.09.
On to `O=C(Nc1ccccc1)c1ccc(COc2cccc3ccccc23)cc1`, for which the “% Inhibition” value is -7% and the Z score is recorded as 0.81.
For `O=C(O)C1CCN(S(=O)(=O)N2CCCC[C@@H]2CCc2cccs2)CC1`, in that order: -4% and 0.7.
Taken in the same sequence, the figures for `O=C(O)C1(Oc2ccc(Cl)cc2)CCN(c2ncnc3[nH]cnc23)CC1` were 4% and -0.58.
As to `CCN=C(NC)NCC1(CCOCC)CCCC1`, the “% Inhibition” value is given as -5% and the Z score is 0.89.
As to `O[C@@H]1CCN(Cc2ccccc2OCCCCN2CCOCC2)C1`, the “% Inhibition” value came out at 8% and the Z score is listed as -0.72.
Taken in the same sequence, the figures for `CN(C)Cc1ccc(-c2ccc3c(ccn3CC(=O)Nc3cnn(C)n3)c2)cc1` were 13% and -1.74.
For `CCNC(=O)N1CCC(NC(C)c2sc(CC)nc2C)C1` (stereo unspecified), in that order: 0% and -0.05.
For `COc1ccc(COn2c(=O)c(C)[n+]([O-])c3ccccc32)cc1OC`, in that order: -9% and 1.41.
`Cc1noc(Cl)c1CCC(=O)OC[C@H]1CCCN1C(N)=O`: the “% Inhibition” value is -6% and the Z score is 0.83.
With `O=C1CN(Cc2cc3ccc(Cl)cc3nc2-c2ccsc2)CCN1`, the “% Inhibition” value was -8% and the Z score amounted to 0.93.
For `COC[C@H](NC1CCC(NC(C)=O)CC1)c1ccc(C)o1` (stereo partly specified), in that order: 5% and -0.7.
